# Measured values as given in publication PMC12529666.
# This is a selection; strong and weak results do not stand in their true shares. At the low end of the ranking, values are background and their order means little. The list shows a part of the results.
# Key:
# [1] = molecular target: AGO2 WT (phosphosite mutant background) S387D + S824A + S828D + S831D + S834A (UniProt Q9UKV8); assay: RNA Bind-n-Seq (nitrocellulose filter binding and sequencing); details: constant regions annealed to DNA blockers; guide miR-122 5' phosphate; 30 mM Tris pH 8.0, 100 mM potassium acetate, 2 mM magnesium acetate, 0.5 mM TCEP, 0.005% NP-40, 0.01 mg/ml yeast tRNA; 3 nM AGO2-miR-122, 100 nM RNA library …; high values mean tight binding
# [2] = molecular target: AGO2 F182del S387D + S824A + S828D + S831D + S834A + del182-182 (UniProt Q9UKV8); assay: as above; details: constant regions annealed to DNA blockers; guide miR-122 5' phosphate; 30 mM Tris pH 8.0, 100 mM potassium acetate, 2 mM magnesium acetate, 0.5 mM TCEP, 0.005% NP-40, 0.01 mg/ml yeast tRNA; 3 nM AGO2-miR-122, 100 nM RNA library …; high values mean tight binding
Sequence,binding signal (fold enrichment over input) [1],binding signal (fold enrichment over input) [2]
GAGUUCUACAGUCCGACGAUCCCAACACGUUUUACACCUGGAAUUCUCGGGUGCCAA / UGGAGUGUGACAAUGGUGUUUG / GATCGTCGGACTGTAGAACTC / TTGGCACCCGAGAATTCCA,0.116,0.204
GAGUUCUACAGUCCGACGAUCCCAACGCGCCCUGCACCUGGAAUUCUCGGGUGCCAA / UGGAGUGUGACAAUGGUGUUUG / GATCGTCGGACTGTAGAACTC / TTGGCACCCGAGAATTCCA,0.109,0.0476
GAGUUCUACAGUCCGACGAUCCCAACGUAUCUUGCACCUGGAAUUCUCGGGUGCCAA / UGGAGUGUGACAAUGGUGUUUG / GATCGTCGGACTGTAGAACTC / TTGGCACCCGAGAATTCCA,0.086,0.0392
GAGUUCUACAGUCCGACGAUCCCAACACAUCCCGCACCUGGAAUUCUCGGGUGCCAA / UGGAGUGUGACAAUGGUGUUUG / GATCGTCGGACTGTAGAACTC / TTGGCACCCGAGAATTCCA,0.128,0.144
GAGUUCUACAGUCCGACGAUCCCAACAUGCUUCACACCUGGAAUUCUCGGGUGCCAA / UGGAGUGUGACAAUGGUGUUUG / GATCGTCGGACTGTAGAACTC / TTGGCACCCGAGAATTCCA,0.135,0.842
GAGUUCUACAGUCCGACGAUCCCAACGUACUUUACACCUGGAAUUCUCGGGUGCCAA / UGGAGUGUGACAAUGGUGUUUG / GATCGTCGGACTGTAGAACTC / TTGGCACCCGAGAATTCCA,0.112,0.0693
GAGUUCUACAGUCCGACGAUCCCAACGUGCCCUGCACCUGGAAUUCUCGGGUGCCAA / UGGAGUGUGACAAUGGUGUUUG / GATCGTCGGACTGTAGAACTC / TTGGCACCCGAGAATTCCA,0.104,0.0474
GAGUUCUACAGUCCGACGAUCCCAACGUGUCCUGCACCUGGAAUUCUCGGGUGCCAA / UGGAGUGUGACAAUGGUGUUUG / GATCGTCGGACTGTAGAACTC / TTGGCACCCGAGAATTCCA,0.0878,0.0349
GAGUUCUACAGUCCGACGAUCCCAACAUAUUCUGCACCUGGAAUUCUCGGGUGCCAA / UGGAGUGUGACAAUGGUGUUUG / GATCGTCGGACTGTAGAACTC / TTGGCACCCGAGAATTCCA,0.0935,0.0465
GAGUUCUACAGUCCGACGAUCCCAACAUAUCUUACACCUGGAAUUCUCGGGUGCCAA / UGGAGUGUGACAAUGGUGUUUG / GATCGTCGGACTGTAGAACTC / TTGGCACCCGAGAATTCCA,0.113,0.0887
GAGUUCUACAGUCCGACGAUCCCAACGCGCUCCACACCUGGAAUUCUCGGGUGCCAA / UGGAGUGUGACAAUGGUGUUUG / GATCGTCGGACTGTAGAACTC / TTGGCACCCGAGAATTCCA,1.63,6.7
GAGUUCUACAGUCCGACGAUCCCAACACGUUCCGCACCUGGAAUUCUCGGGUGCCAA / UGGAGUGUGACAAUGGUGUUUG / GATCGTCGGACTGTAGAACTC / TTGGCACCCGAGAATTCCA,0.0857,0.0618
GAGUUCUACAGUCCGACGAUCCCAACGCGUUUUGCACCUGGAAUUCUCGGGUGCCAA / UGGAGUGUGACAAUGGUGUUUG / GATCGTCGGACTGTAGAACTC / TTGGCACCCGAGAATTCCA,0.0947,0.032
GAGUUCUACAGUCCGACGAUCCCAACGCACUUUACACCUGGAAUUCUCGGGUGCCAA / UGGAGUGUGACAAUGGUGUUUG / GATCGTCGGACTGTAGAACTC / TTGGCACCCGAGAATTCCA,0.12,0.122
GAGUUCUACAGUCCGACGAUCCCAACGCAUCUUACACCUGGAAUUCUCGGGUGCCAA / UGGAGUGUGACAAUGGUGUUUG / GATCGTCGGACTGTAGAACTC / TTGGCACCCGAGAATTCCA,0.12,0.109
GAGUUCUACAGUCCGACGAUCCCAACAUGUCUUGCACCUGGAAUUCUCGGGUGCCAA / UGGAGUGUGACAAUGGUGUUUG / GATCGTCGGACTGTAGAACTC / TTGGCACCCGAGAATTCCA,0.0825,0.0421
GAGUUCUACAGUCCGACGAUCCCAACGCACUCCACACCUGGAAUUCUCGGGUGCCAA / UGGAGUGUGACAAUGGUGUUUG / GATCGTCGGACTGTAGAACTC / TTGGCACCCGAGAATTCCA,117,91.6
GAGUUCUACAGUCCGACGAUCCCAACAUGCUUCGCACCUGGAAUUCUCGGGUGCCAA / UGGAGUGUGACAAUGGUGUUUG / GATCGTCGGACTGTAGAACTC / TTGGCACCCGAGAATTCCA,0.0868,0.0415
GAGUUCUACAGUCCGACGAUCCCAACAUACCCCACACCUGGAAUUCUCGGGUGCCAA / UGGAGUGUGACAAUGGUGUUUG / GATCGTCGGACTGTAGAACTC / TTGGCACCCGAGAATTCCA,0.102,0.199
GAGUUCUACAGUCCGACGAUCCCAACAUGCCCCACACCUGGAAUUCUCGGGUGCCAA / UGGAGUGUGACAAUGGUGUUUG / GATCGTCGGACTGTAGAACTC / TTGGCACCCGAGAATTCCA,0.116,0.191

Sequence,binding signal (fold enrichment over input) [1],binding signal (fold enrichment over input) [2]
GAGUUCUACAGUCCGACGAUCCCAACACAUUCCACACCUGGAAUUCUCGGGUGCCAA / UGGAGUGUGACAAUGGUGUUUG / GATCGTCGGACTGTAGAACTC / TTGGCACCCGAGAATTCCA,0.267,2.93
GAGUUCUACAGUCCGACGAUCCCAACAUAUCCUACACCUGGAAUUCUCGGGUGCCAA / UGGAGUGUGACAAUGGUGUUUG / GATCGTCGGACTGTAGAACTC / TTGGCACCCGAGAATTCCA,0.102,0.0777
GAGUUCUACAGUCCGACGAUCCCAACGCGUCCUGCACCUGGAAUUCUCGGGUGCCAA / UGGAGUGUGACAAUGGUGUUUG / GATCGTCGGACTGTAGAACTC / TTGGCACCCGAGAATTCCA,0.0991,0.0426
GAGUUCUACAGUCCGACGAUCCCAACACACCUCACACCUGGAAUUCUCGGGUGCCAA / UGGAGUGUGACAAUGGUGUUUG / GATCGTCGGACTGTAGAACTC / TTGGCACCCGAGAATTCCA,0.251,4.6
GAGUUCUACAGUCCGACGAUCCCAACGUGCCUUACACCUGGAAUUCUCGGGUGCCAA / UGGAGUGUGACAAUGGUGUUUG / GATCGTCGGACTGTAGAACTC / TTGGCACCCGAGAATTCCA,0.126,0.0667
GAGUUCUACAGUCCGACGAUCCCAACACAUUUCACACCUGGAAUUCUCGGGUGCCAA / UGGAGUGUGACAAUGGUGUUUG / GATCGTCGGACTGTAGAACTC / TTGGCACCCGAGAATTCCA,0.235,4.77
GAGUUCUACAGUCCGACGAUCCCAACGCGCUUUGCACCUGGAAUUCUCGGGUGCCAA / UGGAGUGUGACAAUGGUGUUUG / GATCGTCGGACTGTAGAACTC / TTGGCACCCGAGAATTCCA,0.0851,0.031
GAGUUCUACAGUCCGACGAUCCCAACGCGCCUCGCACCUGGAAUUCUCGGGUGCCAA / UGGAGUGUGACAAUGGUGUUUG / GATCGTCGGACTGTAGAACTC / TTGGCACCCGAGAATTCCA,0.107,0.0466
GAGUUCUACAGUCCGACGAUCCCAACACGCUUCGCACCUGGAAUUCUCGGGUGCCAA / UGGAGUGUGACAAUGGUGUUUG / GATCGTCGGACTGTAGAACTC / TTGGCACCCGAGAATTCCA,0.0824,0.0559
GAGUUCUACAGUCCGACGAUCCCAACGUAUCCCGCACCUGGAAUUCUCGGGUGCCAA / UGGAGUGUGACAAUGGUGUUUG / GATCGTCGGACTGTAGAACTC / TTGGCACCCGAGAATTCCA,0.083,0.0503
GAGUUCUACAGUCCGACGAUCCCAACACGCCUUACACCUGGAAUUCUCGGGUGCCAA / UGGAGUGUGACAAUGGUGUUUG / GATCGTCGGACTGTAGAACTC / TTGGCACCCGAGAATTCCA,0.118,0.246
GAGUUCUACAGUCCGACGAUCCCAACACGUCUUGCACCUGGAAUUCUCGGGUGCCAA / UGGAGUGUGACAAUGGUGUUUG / GATCGTCGGACTGTAGAACTC / TTGGCACCCGAGAATTCCA,0.0864,0.0483
GAGUUCUACAGUCCGACGAUCCCAACGCAUUUCGCACCUGGAAUUCUCGGGUGCCAA / UGGAGUGUGACAAUGGUGUUUG / GATCGTCGGACTGTAGAACTC / TTGGCACCCGAGAATTCCA,0.0838,0.04
GAGUUCUACAGUCCGACGAUCCCAACAUGUUUUGCACCUGGAAUUCUCGGGUGCCAA / UGGAGUGUGACAAUGGUGUUUG / GATCGTCGGACTGTAGAACTC / TTGGCACCCGAGAATTCCA,0.0972,0.0437
GAGUUCUACAGUCCGACGAUCCCAACGCGUCUCGCACCUGGAAUUCUCGGGUGCCAA / UGGAGUGUGACAAUGGUGUUUG / GATCGTCGGACTGTAGAACTC / TTGGCACCCGAGAATTCCA,0.0967,0.0394
GAGUUCUACAGUCCGACGAUCCCAACGUGUUCCGCACCUGGAAUUCUCGGGUGCCAA / UGGAGUGUGACAAUGGUGUUUG / GATCGTCGGACTGTAGAACTC / TTGGCACCCGAGAATTCCA,0.101,0.0438
GAGUUCUACAGUCCGACGAUCCCAACGCGUCUUACACCUGGAAUUCUCGGGUGCCAA / UGGAGUGUGACAAUGGUGUUUG / GATCGTCGGACTGTAGAACTC / TTGGCACCCGAGAATTCCA,0.118,0.109
GAGUUCUACAGUCCGACGAUCCCAACACGUUCUGCACCUGGAAUUCUCGGGUGCCAA / UGGAGUGUGACAAUGGUGUUUG / GATCGTCGGACTGTAGAACTC / TTGGCACCCGAGAATTCCA,0.0882,0.0468
GAGUUCUACAGUCCGACGAUCCCAACGCGUUCUACACCUGGAAUUCUCGGGUGCCAA / UGGAGUGUGACAAUGGUGUUUG / GATCGTCGGACTGTAGAACTC / TTGGCACCCGAGAATTCCA,0.104,0.0738
